Experimental data as given in the supplement of paper PMC4967469.
Lines with a small IC50 respond at low doses; a limit (>, <) means that the fit lies beyond the doses tested. AUC, from the same fit, is the share of area under the viability curve across the 256-fold dose range: 1 means no effect, lower means more sensitive. For some of these results: An inferred top dose comes from the curve model; the source does not state it. For some of these results: Where an entry number is given, a second screen of the drug exists; the two often differ.

Key:
Assay in all cases: Viability of human cancer cell lines after 72 h of drug (GDSC screen)
Y-39983 = compound: C[C@@H](N)c1ccc(C(=O)Nc2ccnc3[nH]ccc23)cc1 [Y-39983]; conditions: top dose 20 µM; top dose inferred
Protocol: (§1)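 Human cancer cell lines in 384-well plates, medium with 10% serum, drug for 72 h over a 256-fold dose range (nine 2-fold or five 4-fold steps up to the top dose). Adherent lines were fixed and stained with the nucleic acid dye Syto60, suspension lines read with resazurin; signal relative to control wells, capped at 0 and 100%. One two-parameter sigmoid per drug and line, fitted in a mixed model over all curves with the slope shared within a line.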

AZD-0530 = compound: CN1CCN(CCOc2cc(OC3CCOCC3)c3c(Nc4c(Cl)ccc5c4OCO5)ncnc3c2)CC1 [AZD-0530]; conditions: top dose 2 µM
Protocol: as §1

TPCA-1 = compound: NC(=O)Nc1sc(-c2ccc(F)cc2)cc1C(N)=O [TPCA-1]; conditions: top dose 20 µM
Protocol: as §1

Epothilone B = compound: C/C(=C\c1csc(C)n1)[C@@H]1C[C@@H]2O[C@]2(C)CCC[C@H](C)[C@H](O)[C@@H](C)C(=O)C(C)(C)[C@@H](O)CC(=O)O1 [Epothilone B]; conditions: top dose 0.032 µM; top dose inferred
Protocol: as §1

PHA-793887 = compound: CC(C)CC(=O)Nc1n[nH]c2c1CN(C(=O)C1CCN(C)CC1)C2(C)C [PHA-793887]; conditions: top dose 10.24 µM
Protocol: as §1

PLX4720 = compound: CCCS(=O)(=O)Nc1ccc(F)c(C(=O)c2c[nH]c3ncc(Cl)cc23)c1F [PLX4720]; conditions: top dose 10 µM
Protocol: as §1

Pyrimethamine = compound: CCc1nc(N)nc(N)c1-c1ccc(Cl)cc1 [Pyrimethamine]; conditions: top dose 20 µM; top dose inferred
Protocol: as §1

[1] = screen: GDSC drug entry 1371, top dose inferred

Row | Cell Line | AUC (Y-39983) | IC50 (Y-39983) | AUC (AZD-0530) | IC50 (AZD-0530) | AUC (TPCA-1) | IC50 (TPCA-1) | AUC (Epothilone B) | IC50 (Epothilone B) | AUC (PHA-793887) | IC50 (PHA-793887) | AUC (PLX4720; screen: GDSC drug entry 1036) | IC50 (PLX4720; screen: GDSC drug entry 1036) | AUC (PLX4720; [1]) | IC50 (PLX4720; [1]) | AUC (Pyrimethamine) | IC50 (Pyrimethamine)
1 | NCI-H69 (small cell lung carcinoma, suspension) | 0.986 | > 20 µM | 0.982 | > 2 µM | 0.979 | > 20 µM | 0.803 | 0.0181 µM | 0.81 | 6.16 µM | 0.973 | > 10 µM | 0.967 | > 10 µM | 0.959 | > 20 µM
2 | NCI-H82 (small cell lung carcinoma, suspension) | 0.943 | > 20 µM | 0.987 | > 2 µM | 0.822 | 10.9 µM | 0.876 | 0.0288 µM | 0.796 | 4.52 µM | 0.87 | 8.45 µM | 0.962 | > 10 µM | 0.797 | 8.88 µM
3 | NCI-H211 (small cell lung carcinoma, adherent) | 0.875 | 18.7 µM | 0.97 | > 2 µM | 0.733 | 5.66 µM | 0.495 | 0.00193 µM | 0.642 | 1.56 µM | 0.98 | > 10 µM | 0.963 | > 10 µM | 0.863 | 16.5 µM
4 | NCI-H226 (lung squamous cell carcinoma, adherent) | 0.847 | 15.8 µM | 0.979 | > 2 µM | 0.665 | 3.69 µM | 0.83 | 0.0214 µM | 0.866 | 9.91 µM | 0.987 | > 10 µM | 0.983 | > 10 µM | 0.98 | > 20 µM
5 | NCI-H322M (lung adenocarcinoma, suspension) | 0.983 | > 20 µM | 0.987 | > 2 µM | 0.928 | > 20 µM | 0.987 | > 0.032 µM | 0.945 | > 10.2 µM | 0.888 | > 10 µM | 0.957 | > 10 µM | 0.953 | > 20 µM
6 | NCI-H345 (small cell lung carcinoma, suspension) | 0.99 | > 20 µM | 0.988 | > 2 µM | 0.974 | > 20 µM | 0.986 | > 0.032 µM | 0.924 | > 10.2 µM | 0.985 | > 10 µM | 0.989 | > 10 µM | 0.984 | > 20 µM
7 | NCI-H510A (small cell lung carcinoma, semi-adherent) | 0.945 | > 20 µM | 0.958 | > 2 µM | 0.852 | 13.6 µM | 0.782 | 0.0122 µM | 0.808 | 4.77 µM | 0.985 | > 10 µM |  |  | 0.965 | > 20 µM
8 | NCI-H524 (small cell lung carcinoma, suspension) | 0.99 | > 20 µM | 0.949 | > 2 µM | 0.881 | 17.2 µM | 0.803 | 0.0139 µM | 0.498 | 0.633 µM | 0.974 | > 10 µM | 0.99 | > 10 µM | 0.911 | > 20 µM
9 | NCI-H526 (small cell lung carcinoma, suspension) | 0.974 | > 20 µM | 0.99 | > 2 µM | 0.761 | 6.82 µM | 0.712 | 0.00769 µM | 0.371 | 0.287 µM | 0.988 | > 10 µM | 0.989 | > 10 µM | 0.796 | 8.91 µM
10 | NCI-H716 (large intestine, suspension) | 0.964 | > 20 µM | 0.974 | > 2 µM | 0.738 | 7.29 µM | 0.979 | > 0.032 µM | 0.926 | > 10.2 µM |  |  | 0.959 | > 10 µM | 0.935 | > 20 µM
11 | NCI-H720 (lung carcinoid, suspension) | 0.986 | > 20 µM | 0.971 | > 2 µM | 0.98 | > 20 µM | 0.989 | > 0.032 µM | 0.991 | > 10.2 µM | 0.992 | > 10 µM | 0.989 | > 10 µM | 0.897 | > 20 µM
12 | NCI-H747 (large intestine, adherent) | 0.914 | > 20 µM | 0.856 | > 2 µM | 0.848 | > 20 µM | 0.522 | 0.00233 µM | 0.745 | 3.84 µM | 0.982 | > 10 µM | 0.978 | > 10 µM | 0.951 | > 20 µM
13 | NCI-H847 (small cell lung carcinoma, adherent) | 0.756 | 5.68 µM | 0.993 | > 2 µM | 0.42 | 0.788 µM | 0.336 | 0.000774 µM | 0.305 | 0.206 µM | 0.981 | > 10 µM | 0.991 | > 10 µM | 0.946 | > 20 µM
14 | NCI-H1092 (small cell lung carcinoma, suspension) | 0.941 | > 20 µM | 0.985 | > 2 µM | 0.932 | > 20 µM | 0.944 | > 0.032 µM | 0.89 | > 10.2 µM | 0.986 | > 10 µM | 0.974 | > 10 µM | 0.979 | > 20 µM
15 | NCI-H1155 (large cell lung carcinoma, suspension) | 0.953 | > 20 µM | 0.993 | > 2 µM | 0.858 | 12 µM | 0.923 | > 0.032 µM | 0.993 | > 10.2 µM | 0.954 | > 10 µM | 0.981 | > 10 µM | 0.979 | > 20 µM
16 | NCI-H1299 (large cell lung carcinoma, adherent) | 0.959 | > 20 µM | 0.935 | > 2 µM | 0.861 | > 20 µM | 0.416 | 0.00111 µM | 0.983 | > 10.2 µM |  |  | 0.898 | > 10 µM | 0.931 | > 20 µM
